We go through 13 compounds from the supplement of paper PMC10037445.

Several values for one entry are separate records, joined by “and”; a condition that tells them apart may be missing. Equal entries are not always repeated. In all, about 2,900 compounds were measured (“NF-kB SEAP reporter activity, fold change vs agonist alone”: median about 0.99, highest 2% from about 2.6 on). The list shows a part of the results.

The test system of assay [1] is RAW-Dual. Kind of assay: NF-kB SEAP reporter activity, fold change vs agonist alone; cytotoxicity flag (confluency mask): cytotoxic (confluency <70% of control); higher = enhanced NF-kB activity. The method in brief: (§1)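 Reporter activity is given as fold change relative to agonist-alone wells. To measure it, 50 nL of library stock was pin-tooled onto RAW-Dual macrophages (50,000 cells/well, DMEM, 384-well plates), a PRR agonist followed 1 h later, and cells stayed at 37 °C, 5% CO2. Twenty hours on, supernatant was assayed for IRF (QuantiLuc luminescence) and NF-κB (QuantiBlue, 620 nm absorbance), and wells under 70% of agonist-control IncuCyte confluency in both mask sets were marked cytotoxic.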

The test system of assay [2] is RAW-Dual. Kind of assay: NF-kB SEAP reporter activity, fold change vs agonist alone; higher = enhanced NF-kB activity. The settings on record: library stock concentration (final ~1000-fold dilution): 10 mM, cytotoxicity flag (confluency mask): not cytotoxic. The method in brief:
as §1

Assay [3] has as its system RAW-Dual. Briefly: NF-kB SEAP reporter activity, fold change vs agonist alone; cytotoxicity flag (confluency mask): not cytotoxic; higher = enhanced NF-kB activity. The method in brief:
as §1

The mark [4] stands for this setting: agonist: ODN 1826 (TLR9) 0.5 ug/mL.
[5] abbreviates: agonist: Pam2CSK4 (TLR2/6) 0.1 ug/mL.
The mark [6] stands for this setting: agonist: Pam3CSK4 (TLR2/1) 0.1 ug/mL.

For the compound `O=C(c1ccc(Nc2nccc(-c3cc4ccccc4s3)n2)cc1)N1CCC(N2CCCC2)CC1` (library stock concentration (final ~1000-fold dilution): 10 mM), the “NF-kB SEAP reporter activity” value with RAW-Dual [1] (agonist: LPS (TLR4) 0.1 ug/mL) was 0.302 and 0.283; in the assay on RAW-Dual [1] (setting [4]), 0.179 and 0.19; with RAW-Dual [1] (setting [5]), 0.0736 and 0.0841; in the assay with RAW-Dual [1] (setting [6]) it was 0.128 and 0.186.
Consider `Cc1nn(-c2ccccc2)c(C)c1/C=N/N1CCN(Cc2ccccc2)CC1`, for which the “NF-kB SEAP reporter activity” value in the assay on RAW-Dual [2] (agonist: Imiquimod (TLR7) […]) was found to be 0.964; in the assay with RAW-Dual [2] (agonist: MPLA (TLR4) […]), 1.08.
With `Cc1nn(-c2ccccc2)c(C)c1/C=N/N1CCN(Cc2ccccc2)CC1` (library stock concentration (final ~1000-fold dilution): 10 mM), the “NF-kB SEAP reporter activity” value with RAW-Dual [3] (agonist: LPS (TLR4) 0.1 ug/mL) was 1.23; in the assay on RAW-Dual [3] (setting [4]) it was 0.972; with RAW-Dual [3] (setting [5]) it was 0.885; with RAW-Dual [3] (setting [6]), 0.968.
Turning to `O=C(/C=C/c1ccccc1)NC(NC(=S)Nc1cccc2cccnc12)C(Cl)(Cl)Cl` (centres undefined), the entries for the “NF-kB SEAP reporter activity” value in the assay on RAW-Dual [2] (agonist: Imiquimod (TLR7) […]) and in the assay on RAW-Dual [2] (agonist: MPLA (TLR4) […]) were 0.628 and 0.833, respectively.
`O=C(/C=C/c1ccccc1)NC(NC(=S)Nc1cccc2cccnc12)C(Cl)(Cl)Cl` (centres undefined) (library stock concentration (final ~1000-fold dilution): 10 mM): the “NF-kB SEAP reporter activity” value with RAW-Dual [3] (agonist: LPS (TLR4) 0.1 ug/mL) was found to be 0.779; with RAW-Dual [3] (setting [4]) it was 0.429; in the assay on RAW-Dual [3] (setting [5]), 0.288; in the assay on RAW-Dual [3] (setting [6]), 0.388.
The matching figures for `CC(C)C(C(=O)Nc1ccc(C(=O)NO)cc1)c1ccccc1` (centres undefined) (library stock concentration (final ~1000-fold dilution): 10 mM): 4.76, 0.93, 1.12 and 1.15.
Take `CC(C)C(C(=O)Nc1ccc(C(=O)NO)cc1)c1ccccc1` (centres undefined): the “NF-kB SEAP reporter activity” value is 0.965 in the assay with RAW-Dual [2] (agonist: Imiquimod (TLR7) […]) and 0.937 in the assay on RAW-Dual [2] (agonist: MPLA (TLR4) […]).
Take `Cl.Cl.Clc1ccc(Nc2nnc(Cc3ccncc3)c3ccccc23)cc1` (library stock concentration (final ~1000-fold dilution): 10 mM): the “NF-kB SEAP reporter activity” value was determined as 0.846 in the assay on RAW-Dual [3] (agonist: LPS (TLR4) 0.1 ug/mL), 0.959 in the assay on RAW-Dual [3] (setting [4]), 0.625 in the assay with RAW-Dual [3] (setting [5]) and 0.736 in the assay with RAW-Dual [3] (setting [6]).
Regarding `Cl.Cl.Clc1ccc(Nc2nnc(Cc3ccncc3)c3ccccc23)cc1`, the “NF-kB SEAP reporter activity” value was 0.792 with RAW-Dual [2] (agonist: Imiquimod (TLR7) […]) and 0.871 with RAW-Dual [2] (agonist: MPLA (TLR4) […]).
`Fc1ccc(Cl)cc1-c1nc(Nc2ccncc2)c2nccnc2n1` (library stock concentration (final ~1000-fold dilution): 10 mM): the “NF-kB SEAP reporter activity” value in the assay on RAW-Dual [3] (agonist: LPS (TLR4) 0.1 ug/mL) came to 1.34; in the assay with RAW-Dual [3] (setting [4]) it was 0.818; with RAW-Dual [3] (setting [5]), 0.725; in the assay on RAW-Dual [3] (setting [6]) it was 0.521.
For `Fc1ccc(Cl)cc1-c1nc(Nc2ccncc2)c2nccnc2n1`, the “NF-kB SEAP reporter activity” value in the assay with RAW-Dual [2] (agonist: Imiquimod (TLR7) […]) was 0.948; in the assay on RAW-Dual [2] (agonist: MPLA (TLR4) […]), 1.14.
In the case of `O=C(O)COCCN1CCN(C(c2ccccc2)c2ccc(Cl)cc2)CC1` (centres undefined) (library stock concentration (final ~1000-fold dilution): 10 mM), the “NF-kB SEAP reporter activity” value in the assay on RAW-Dual [3] (agonist: LPS (TLR4) 0.1 ug/mL) turned out to be 0.999; with RAW-Dual [3] (setting [4]) it was 1.02; with RAW-Dual [3] (setting [5]), 1.11; in the assay with RAW-Dual [3] (setting [6]) it was 0.749.
As for `O=C(O)COCCN1CCN(C(c2ccccc2)c2ccc(Cl)cc2)CC1` (centres undefined), in the assay with RAW-Dual [2] (agonist: MPLA (TLR4) […]), the “NF-kB SEAP reporter activity” value stood at 1.09.
